Measurements: the supplement of paper PMC5499739
In all, about 16,000 sequences were measured (“Z-score”: median about -0.37, highest 2% from about 3.2 on). This is one part of the list.

tested on: RBM10 RRM1-ZnF (GST-tagged construct); test: RNAcompete 7-mer binding Z-score; higher = stronger binding preference
Outline: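 GST-tagged RBM10 constructs (20 pmol) were mixed with a designed pool of 241 399 RNAs up to 41 nt (1.5 nmol), transcribed from microarray-derived DNA templates. Mixing was in 1 ml Hepes pH 7.8 buffer with KCl, NaCl, glycerol, DTT, BSA and glutathione Sepharose beads. Binding ran 30 min at 4°C, followed by four 2-min washes at 4°C, and bound RNA was identified by microarray hybridisation. Each heptamer motif received a one-sided Z-score for enrichment across probes containing it.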

| Sequence | RNAcompete 7-mer binding Z-score |
| --- | --- |
| UCCUCGU | -0.591 |
| UCGGUAA | 0.124 |
| GGCCUGA | -0.412 |
| UCUGGUA | -0.435 |
| CGUCUAA | -0.48 |
| UCGACAA | -0.526 |
| AUCAAAU | -0.766 |
| GCUACGU | -0.22 |
| GAGACCA | -0.126 |
| CUCAUUC | -0.889 |
| UGGGGCG | 2.54 |
| CUGCAUU | -0.642 |
| GGUAUUC | 0.183 |
| GAAAUCU | -0.542 |
| CCUAAUC | -0.821 |
| GCACACU | -0.295 |
| AUAAAAC | -0.532 |
| CAAGCCC | -0.779 |
| AAAACCG | -0.626 |
| AAAUAAG | 0.163 |
| CGGCAUC | -0.246 |
| GGCGCAC | 0.0528 |
| UAUGUGC | -0.00571 |

| Sequence | RNAcompete 7-mer binding Z-score |
| --- | --- |
| CAUGUCC | -0.785 |
| AACCCAA | -0.714 |
| ACAACUU | -0.772 |
| UUUGCAU | -0.707 |
| UGGGCUA | 1.36 |
| UGUCGAA | -0.412 |
| UCGACAG | -0.428 |
| GGAAGAA | 2.04 |
| CGUUCUC | -0.688 |
| UGUUGCA | -0.305 |
| AAACAUC | -0.636 |
| ACUCUGA | -0.73 |
| ACUGCCA | -0.714 |
| AGAGUAG | 1.19 |
| AUGUACC | -0.409 |
| GCGACAC | -0.175 |
| UAGGGGG | 3.97 |
| GCCUGCC | -0.123 |
| UCACUGU | -0.522 |
| UCUGAAG | -0.545 |
| UGCCUAU | -0.668 |
| UUCCACU | -0.798 |
| GCCUCGG | -0.0479 |

| Sequence | RNAcompete 7-mer binding Z-score |
| --- | --- |
| ACAUUUC | -0.899 |
| GAGAGCU | 0.55 |
| AACAUGA | -0.298 |
| CCAGUGA | -0.438 |
| AACGUGC | -0.181 |
| CUGCCGC | -0.642 |
| GACGUGC | -0.201 |
| AUGAUAG | 0.794 |
| ACGGAUA | 1.61 |
| GACAAGU | 0.0885 |
| CUACGAA | -0.389 |
| UUCACAG | -0.617 |
| CUCUAAU | -0.694 |
| GCCGUCC | -0.444 |
| AUAAGCA | -0.152 |
| ACGCGGA | 0.498 |
| UACAUAU | -0.509 |
| GUACUAG | 0.108 |
| AUGUUGU | -0.162 |
| AAGUACA | -0.0577 |
| UUCAGUC | -0.604 |
| GGGUAUC | 2.04 |
| CGGGGUA | 3.2 |

| Sequence | RNAcompete 7-mer binding Z-score |
| --- | --- |
| GAAGCAC | -0.113 |
| AUUUGCU | -0.769 |
| CGUUCUU | -0.737 |
| AAGAGCA | 0.303 |
| CGACUUA | -0.642 |
| GUAGACU | -0.136 |
| CUCCGAG | -0.652 |
| CACGUUC | -0.743 |
| CGAUCGC | -0.548 |
| UGGUUUC | 0.625 |
| CACCGUU | -0.704 |
| UUUCAUG | -0.558 |
| CUACAGG | 0.378 |
| UAUUAUU | -0.61 |
| CCCGCCG | -0.399 |
| AGUUCAU | -0.535 |
| GACUCCA | -0.672 |
| AUCUAGC | -0.698 |
| UGUCCUU | -0.672 |
| AUACGAG | -0.184 |
| AUGUCGG | 0.446 |
| CGAGUCC | -0.675 |
| AAAUAUC | -0.552 |

| Sequence | RNAcompete 7-mer binding Z-score |
| --- | --- |
| AAGCAGG | 2 |
| GUUAACG | 0.498 |
| AACUGAA | -0.34 |
| CAAGACA | -0.21 |
| CUAUCUG | -0.805 |
| GUACGUA | 0.352 |
| UCGCUCU | -0.772 |
| GGAUGCU | 0.8 |
| ACACAUA | -0.61 |
| CCAAGCA | -0.535 |
| GCUUGGC | -0.126 |
| UAUCCGA | -0.815 |
| GCUGUAU | -0.376 |
| CGGCUCC | -0.353 |
| CGGGACA | 0.807 |
| CUUAUAA | -0.714 |
| UAUGCUU | -0.604 |
| AGUGACU | -0.184 |
| GAACGCG | 0.244 |
| CGAUAAG | 0.348 |
| UAGCAAA | -0.178 |
| CCGGUAU | -0.197 |
| AUUAUGU | -0.422 |

| Sequence | RNAcompete 7-mer binding Z-score |
| --- | --- |
| GUCGUAG | 0.056 |
| UUCACUG | -0.655 |
| CUCGCUG | -0.623 |
| GAUUUGC | -0.444 |
| UUUUUAG | -0.522 |
| AGACUCG | -0.714 |
| GCGUCUG | -0.295 |
| ACUCAUC | -0.746 |
| AUUGGCU | -0.0187 |
| ACCGUUG | -0.399 |
| CAAACCU | -0.805 |
| UUAGGCC | -0.48 |
| GAUGGCA | 1.06 |
| UGGGCGU | 2.14 |
| GGCAGAG | 1.85 |
| UCAGACU | -0.623 |
| UUGUUCC | -0.626 |
| GAGCAAG | 1.33 |
| CCAUCCU | -0.763 |
| CCUGUGG | 0.339 |
| CGGUUUA | 0.235 |
| UCUCCGA | -0.743 |
| AUAAUAG | 0.0333 |

| Sequence | RNAcompete 7-mer binding Z-score |
| --- | --- |
| UGAAAUC | -0.49 |
| ACAAUAG | 0.0528 |
| CAGGGAG | 2.8 |
| UGAUUCC | -0.698 |
| ACGGAGU | 1.28 |
| CGGAAGC | 0.283 |
| CGAUAAU | -0.535 |
| CCUGAGA | -0.555 |
| UUGUGUC | -0.526 |
| UGAGGUC | 0.683 |
| GUCAAUG | -0.035 |
| CAUCUGC | -0.72 |
| UCGGGCU | 0.069 |
| GGUUUCC | 0.3 |
| UACUCCG | -0.6 |
| CGUCUUA | -0.792 |
| GGCCCUU | -0.769 |
| CAAUACA | -0.441 |
| AGCGUGC | 0.0398 |
| AGUAUAU | -0.363 |
| UAUGCAA | -0.0382 |
| AUUGUAA | -0.412 |
| UACGUUA | -0.545 |

| Sequence | RNAcompete 7-mer binding Z-score |
| --- | --- |
| CCCAACU | -0.727 |
| UACGGGA | 1.8 |
| CGGCCUU | -0.727 |
| CAUCGAC | -0.668 |
| CUGGGUA | 2.13 |
| GCUUCUG | -0.681 |
| CAUACUA | -0.789 |
| AGCUUCC | -0.821 |
| GCUCAUC | -0.818 |
| UUGCGUU | -0.331 |
| UAACACA | -0.246 |
| AUCGUCA | -0.662 |
| GGGCCUA | 0.199 |
| CGCUAGC | -0.636 |
| GGCCCAG | -0.357 |
| GCGGCGC | 0.641 |
| AACGAGG | 1.5 |
| GGCAGAA | 1.19 |
| GUGACAA | 0.456 |
| GGUUGAG | 3.3 |
| GUAAACC | -0.275 |
| GACACAU | -0.467 |
